Data: patent US12274759B2, “Affibody proteins specific for B7-H3 (CD276)” (THE BOARD OF TRUSTEES OF THE LELAND STANFORD JUNIOR …, priority 2018, dated 2025)

Test system: MS1-WT cells
Assay: Flow chamber cell attachment assay under flow shear stress, MS1 wild-type cells
Assay type: cell-based, mouse
Method: Binding specificity of MB-B7-H3-affibody to the target B7-H3 was also assessed in cell culture experiments under flow shear stress conditions simulating flow in blood capillaries by using a parallel flow chamber experimental set-up (see FIG. 4). MS1 B7-H3+ cells between passages 2 and 4 were used in all experiments. Before flow chamber experiment, FACS analysis was performed in order to confirm B7-H3 expression of MS1 B7-H3+ cells. The geometric mean fluorescence intensity was determined using FlowJo software. MS1 B7-H3+ cells were grown on coated (Sigmacote; Sigma, St Louis, Mo) neutral-charged glass microscope slides (VWR, USA) for 24 hours and mounted on a parallel plate flow chamber (GlycoTech, Rockville, Md). […] The adhered microbubble number on the MS1 B7-H3+ cells monolayer was quantified manually by counting attached microbubbles on MS1 B7-H3+ cells with a phase-contrast bright-field microscope (Axiovert 25; Carl Zeiss, Thornwood, NY; original magnification, ×100) to assess the number of attached microbubbles per cell. […]
Flow chamber cell attachment assay. Binding specificity of MBABY-B7-H3 and MBAb-B7-H3 to the target B7-H3 was first assessed in cell culture experiments under flow shear stress conditions simulating flow in blood capillaries by using a flow chamber experimental set-up. […]

B1: MBABY-B7-H3: contrast microbubbles functionalized with ABYB7-H3 (biotinylated ABY on streptavidin-coated, lipid-shelled perfluorocarbon MB) (conjugate)
chain: AEAKYAKEKIFAVGEIYWLPNLTHGQIMAFIAALNDDPSQSSELLSEAKKLNDSQAPKHHHHHH
Example 1, flow chamber
  average number of microbubbles attached per MS1-WT cell: 0.57±0.18 MB/cell
Example 3, flow shear stress conditions
  number of MB attached to MS1WT cells: 1.5±0.3 MB/cell
